Hit rate of the full screen: of about 48,000 compounds, about 550 (1.1%) were called active. Another 4% or so got no clear call; they are omitted. Cut-off read from the data, not from the text of the source: active = potency below about 15 µM; inconclusive = mostly about 16 µM to 33 µM; inactive = weaker than that. Some of the results follow.
Each compound was assayed against Lysosomal acid glucosylceramidase (Homo sapiens) (UniProt P04062) (assay: Glucocerebrosidase). Details: purified enzyme, resorufin glucoside fluorescence (screen aimed at inhibitors), 20 min.
In short: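 Wild-type enzyme at 0.2 nM final in 50mM citric acid/KH2PO4, 10mM sodium taurocholate, 0.01% tween-20, pH 5.9, with resorufin beta-D-glucopyranoside at 30 uM final. Compounds titrated, 20 min at RT, red fluorescence read; AC50 from titration.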
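Note: the screen sought inhibitors.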
Potency is the fitted concentration of half-maximal effect.

Chain of UniProt P04062 (P04062 whole entry, looked up): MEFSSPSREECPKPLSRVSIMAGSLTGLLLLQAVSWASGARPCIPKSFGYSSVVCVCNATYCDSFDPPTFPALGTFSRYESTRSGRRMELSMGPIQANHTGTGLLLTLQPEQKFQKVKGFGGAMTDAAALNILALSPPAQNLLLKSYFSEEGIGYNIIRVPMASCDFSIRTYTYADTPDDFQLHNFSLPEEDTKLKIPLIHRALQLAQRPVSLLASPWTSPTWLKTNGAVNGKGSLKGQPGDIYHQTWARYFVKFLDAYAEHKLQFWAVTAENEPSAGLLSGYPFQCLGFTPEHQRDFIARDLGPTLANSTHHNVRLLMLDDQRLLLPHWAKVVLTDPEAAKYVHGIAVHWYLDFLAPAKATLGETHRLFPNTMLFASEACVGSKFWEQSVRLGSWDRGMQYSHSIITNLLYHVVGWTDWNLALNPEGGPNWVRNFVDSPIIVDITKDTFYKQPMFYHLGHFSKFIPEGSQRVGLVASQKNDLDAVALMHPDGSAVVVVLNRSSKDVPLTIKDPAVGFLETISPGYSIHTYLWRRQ

Potency, inactive:
COc1ccc(CCNC(=O)C2CCN(S(=O)(=O)c3cc(OC)ccc3OC)CC2)cc1 > 76.9 µM
CCCc1oc2c(c(=O)c1CC)C(=O)CC(C)(C)C2 > 76.9 µM
O=C1CN(Cc2ccccc2)C(=NCc2ccco2)S1 > 76.9 µM
CS(=O)(=O)N(CC(N)=O)Cc1ccc(Cl)cc1 > 76.9 µM
Cc1ccc(S(=O)(=O)NC2=NCN(C3CCN(Cc4ccccc4)CC3)CN2)cc1 > 76.9 µM
Cc1ccccc1S(=O)(=O)NC1OC(=O)C(Cl)=C1Cl (configuration not stated) > 76.9 µM
COc1cc(NC(=O)c2ccco2)c(OC)cc1NC(=O)CCC(=O)Nc1cc(C)cc(C)c1 > 76.9 µM
COc1ccc(-n2nc(C(=O)NCC(=O)NCC3CCCO3)c3ccccc3c2=O)cc1 (configuration not stated) > 76.9 µM
COc1cccc(C(=O)NC2=NCCS2)c1 > 76.9 µM
Cc1ccc(-c2nc(C#N)c(NCc3ccco3)o2)cc1 > 76.9 µM
CCCCS(=O)(=O)/C=C\C=C/S(=O)(=O)CCCC > 76.9 µM
Cn1c(=O)c2c(nc(CN3CCN(c4ccccc4)CC3)n2CCN2CCOCC2)n(C)c1=O > 76.9 µM
Cc1cc(C)nc(NC2=NCC(=O)N2c2cc(Cl)cc(Cl)c2)n1 > 76.9 µM
CCOC(=O)c1ccc(NC(=O)CSc2ncccn2)cc1 > 76.9 µM
O=S(=O)(NCc1ccccc1)c1ccc(S(=O)(=O)N2CCCCC2)cc1 > 76.9 µM
Cc1nc2cc(CO)ccc2n1C > 76.9 µM
COc1cc2[nH]c(=O)n(CCCCCC(=O)NCCCN3CCC(C)CC3)c(=O)c2cc1OC > 76.9 µM
O=C(OCC#CCSc1nc2ccccc2o1)c1ccco1 > 76.9 µM
CCc1ccc2[nH]c(=O)c(CN(CCN3CCCC3)C(=O)NC3CCCCC3)cc2c1 > 76.9 µM
Cc1ccc(-c2nnn(CC(=O)N(CC(=O)NC(C)C)c3cnc4ccccc4c3)n2)o1 > 76.9 µM
COC(=O)c1ccc(NC(=O)c2ccc(N(C)S(C)(=O)=O)cc2)cc1 > 76.9 µM
O=C1CCC(C(=O)Nc2cccc3ccccc23)N1 (configuration not stated) > 76.9 µM
Cc1cccc2cc(C#N)c(NCCCn3ccnc3)nc12 > 76.9 µM
CN1CCN(C(=O)CN(Cc2ccc(Cl)cc2)S(C)(=O)=O)CC1 > 76.9 µM
COC(=O)c1ccc(NC(=O)CNC(=O)C2CCCCC2)c(C)c1 > 76.9 µM
c1ccc(OCc2nc3ccccc3s2)cc1 > 76.9 µM
O=C(CCc1ccccc1)Nc1nc2nc(-c3ccccc3)cc(=O)n2[nH]1 > 76.9 µM
O=C(CCCCn1c(=O)[nH]c2ccccc2c1=O)NCCC1=CCCCC1 > 76.9 µM
CCOC(=O)CSc1nnc(-c2ccccc2OC)o1 > 76.9 µM
COc1cccc(-n2nnc3c(=O)n(Cc4c(F)cccc4Cl)cnc32)c1 > 76.9 µM
O=C(COC(=O)c1cccs1)NCCN1C(=O)CSC1=O > 76.9 µM
Cc1ccc(C(C)C)cc1C(=O)CC1(O)C(=O)N(C)c2ccccc21 (configuration not stated) > 76.9 µM
Cc1cc(Nc2ccccc2C(=O)O)nc2nc3ccccc3c(=O)n12 > 76.9 µM
Cc1ccc(C)c(-n2c(CNc3ccc(F)cc3)nnc2SCC(N)=O)c1 > 76.9 µM
CCCCOC(=O)C1=C(C)Nc2ncnn2C1c1ccc(OCC)c(OC)c1 (configuration not stated) > 76.9 µM
O=C(CSc1nc2c(cnn2-c2ccccc2)c(=O)[nH]1)N1CCOCC1 > 76.9 µM
CC(=O)NC1(c2ccccc2)CCN(Cc2nnnn2C(C)(C)C)CC1 > 76.9 µM
CC(C)Nc1nc(NC(C)C)nc(C(N)=O)n1 > 76.9 µM
COC(=O)c1c(NC(=O)CN2CCN(c3ccccc3OC)CC2)c2c(C)cccc2n1C > 76.9 µM
CC1CCCC(C)N1CCNC(=O)CCn1nc(-c2ccccc2)ccc1=O (configuration not stated) > 76.9 µM
CCCCOC(=O)C1=C(C)NC2(O)c3ccccc3C(=O)C12O (configuration not stated) > 76.9 µM
C=Cc1cccc(NC(=O)COc2ccccc2)c1 > 76.9 µM
COc1cccc2cc(C(=O)C3=C(O)C(=O)N(CCCN4CCOCC4)C3c3ccncc3)oc12 (configuration not stated) > 76.9 µM
CC(=O)c1cccc(S(=O)(=O)NCC(c2ccco2)N2CCCCC2)c1 (configuration not stated) > 76.9 µM
COc1ccccc1CNC(=O)N[C@@H](Cc1ccccc1)C(=O)O > 76.9 µM
N#CC1=C(N)N=C(SCc2ccccc2)C(C(N)=O)C12CCCCC2 (configuration not stated) > 76.9 µM
COc1ccccc1OCc1nc(C#N)c(NCc2ccco2)o1 > 76.9 µM
CCCc1[nH]nc2c1C1(CCOC1C)C(C#N)=C(N)O2 (configuration not stated) > 76.9 µM
COc1ccc(C2C(C(=O)c3sc(C)nc3C)=C(O)C(=O)N2CCN(C)C)cc1 (configuration not stated) > 76.9 µM
C=CCn1c(SCC(=O)Nc2ccccc2CC)nnc1-c1ccncc1 > 76.9 µM
CC1CN(C(=O)c2cccc(C(=O)N3CC(C)OC(C)C3)c2)CC(C)O1 (configuration not stated) > 76.9 µM
Cc1ccc(C)c(C2=CSC3=NCCN23)c1 > 76.9 µM
CCN(CC)CCCn1c(C)cc2c(c1=O)C(c1cc(OC)c(OC)cc1OC)C(C#N)=C(N)O2 (configuration not stated) > 76.9 µM
CNC(=O)CSc1nnc(COc2ccc(Cl)cc2)n1CCOC > 76.9 µM
Cc1nccn1CC(=O)O > 76.9 µM
COc1ccccc1N1CCN(C(c2cccs2)c2nnnn2C2CCCC2)CC1 (configuration not stated) > 76.9 µM
c1nc(N2CCOCC2)c2[nH]cnc2n1 > 76.9 µM
O=C1OCCC1Sc1nnc(-c2ccc(Br)cc2)o1 (configuration not stated) > 76.9 µM
CN(C(=O)C1CCOC1)c1nnc(-c2cnccn2)s1 (configuration not stated) > 76.9 µM
O=C(OCC#CCSc1nnc(-c2ccncc2)o1)c1cccs1 > 76.9 µM
Nc1nc(C(=O)N2CCOCC2)nn1S(=O)(=O)c1ccc(Cl)cc1 > 76.9 µM
O=C(OC1CCOC1=O)c1ccc(-c2nc3ccccc3s2)s1 (configuration not stated) > 76.9 µM
CCC(=O)NC1(C(F)(F)F)C(=O)NC(C)=C1C#N (configuration not stated) > 76.9 µM
CN(Cc1ccccc1)c1nc2c(c(=O)[nH]c(=O)n2C)n1CCSc1nc2ccccc2[nH]1 > 76.9 µM
CC(C)(C)c1ccc(C(=O)NCc2cccnc2)cc1 > 76.9 µM
Cc1nn(CC(=O)N(C)C)c(=O)c2ccccc12 > 76.9 µM
Cc1cc(C)n2nc(SCC3COc4ccccc4O3)nc2n1 (configuration not stated) > 76.9 µM
CCOC(=O)Cc1csc(NC(=O)c2cccc(N3C(=O)CCC3=O)c2)n1 > 76.9 µM
OCCN(Cc1ccccc1)Cc1cccc(F)c1 > 76.9 µM
Cc1ccc(Cn2c(CN3CCOCC3)nc3c2c(=O)n(C)c(=O)n3C)cc1 > 76.9 µM
CN(C)C(CNc1nnnn1-c1ccccc1)c1ccco1 (configuration not stated) > 76.9 µM
Cc1cc(C)nc(NC(=O)CCCC(=O)O)c1 > 76.9 µM
O=C(Nc1ccc(S(=O)(=O)Nc2cnc3ccccc3n2)cc1)c1ccc(Br)o1 > 76.9 µM
CN(c1ccccc1C(=O)NCc1ccco1)S(C)(=O)=O > 76.9 µM
O=C(NCCCN1CCOCC1)C1CC(=O)N(C2CCCCC2)C1 (configuration not stated) > 76.9 µM
O=C(CCCN1C(=O)c2cccnc2C1=O)N1CC(=O)N(CCc2ccccc2)C(=O)C1 > 76.9 µM
Cc1ccnc(SCC(=O)N2CCC(C(N)=O)CC2)n1 > 76.9 µM
O=C(CSc1nnc(CNc2ccc(F)cc2)n1Cc1ccccc1)N1CCOCC1 > 76.9 µM
Cc1ncoc1C(=O)Nc1ccc(Oc2ccccc2)cc1 > 76.9 µM
CCOC(=O)c1sc(/N=C/Nc2nc(C)c(C(=O)OCC)s2)nc1C > 76.9 µM
CCOc1cc(S(=O)(=O)N2CCCCC2)ccc1Cl > 76.9 µM
O=C(Cn1c(=O)n(Cc2ccco2)c(=O)c2c3c(sc21)CCCC3)Nc1ccccc1 > 76.9 µM
COc1ccc(OC)c(-n2nnnc2SCC(=O)NCCc2ccccc2)c1 > 76.9 µM
COc1ccc(OC)c(C2=C[N+](=O)C(C)(C)C(C)(C)N2[O-])c1 > 76.9 µM
O=c1ccnc(SCc2ccccc2Cl)[nH]1 > 76.9 µM
CC(=O)c1c(COC(=O)c2cccnc2)nc2ccccc2[n+]1[O-] > 76.9 µM
CCOC(=O)CSC1=C(C#N)C(c2ccco2)C(C(=O)OCc2ccccc2)=C(C)N1 (configuration not stated)
CCOc1ccccc1OCC(O)CNC (configuration not stated) > 76.9 µM
CNC(=O)CSCCn1c(SCC(=O)NC)nc2ccccc2c1=O > 76.9 µM
CCOC(=O)c1nn(-c2c(C)n(C)n(-c3ccccc3)c2=O)cc1O > 76.9 µM
CCCCC(=O)NCc1ccc2c(c1)cc(C)n2C > 76.9 µM
Cc1ccccc1OCC(=O)NCCN1CCCC1 > 76.9 µM
